In the supplement of paper PMC12217912:
This is one part of the list. The full chains were built here from the parent and the listed change. Values near 0.05 are background.

B1: TEV protease; numbered along this chain (parent)
chain: MGESLFKGPRDYNPISSSICHLTNESDGHTTSLYGIGFGPFIITNKHLFRRNNGTLVVQSLHGVFKVKDTTTLQQHLVDGRDMIIIRMPKDFPPFPQKLKFREPQREERICLVTTNFQTKSMSSMVSDTSCTFPSGDGIFWKHWIQTKDGQCGSPLVSTRDGFIVGIHSASNFTNTNNYFTSVPKNFMELLTNQEAQQWVSGWRLNADSVLWGGHKVFMVKPEEPFQPVKEATQL

Variants of: B1
Assay: raw area under fraction-flipped curve 0-4 h after induction (AUC4h, not background-subtracted), DNA-recorder readout of cleavage of the substrate (dimensionless); higher = more cleavage of the substrate by the protease variant
Settings: temperature: 34 °C; time window: 0-4 h after rhamnose induction
Method: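 In vivo DNA recorder in E. coli TOP10(DE3) ΔrhaA at 34 °C. Each TEVp single-site mutant (parent TEVp 0) is paired with a single-site variant of the 7-mer TEVs (canonical ENLYFQ|S). The substrate sits between flexible linkers in a Bxb1-sfGFP-TEVs-SsrA fusion, so cleavage stabilises Bxb1 and speeds flipping of a recombination array, read by NGS. The value is the raw area under the fraction-flipped curve over 0-4 h after rhamnose induction (AUC4h), with ≥20 reads per time point. It is not background-subtracted; inactive controls average about 0.047.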
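Note: Bxb1 expression induced with 0.2% (w/v) L-rhamnose at OD600 near 0.5, cultures sampled hourly, flipped fraction per protease–substrate barcode pair counted by paired-end Illumina sequencing.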

Row | Variant | area with substrate ENLYFAS | area with substrate ENLYFCS | area with substrate ENLYFDS | area with substrate ENLYFES | area with substrate ENLYFFS | area with substrate ENLYFGS | area with substrate ENLYFHS | area with substrate ENLYFIS | area with substrate ENLYFKS | area with substrate ENLYFMS | area with substrate ENLYFNS | area with substrate ENLYFPS | area with substrate ENLYFRS | area with substrate ENLYFSS | area with substrate ENLYFTS | area with substrate ENLYFVS | area with substrate ENLYFWS | area with substrate ENLYFYS | area with substrate ENLYFLS
1 | MGESLFKGPRDYNPISSSICHLTNESDGHTTSLYGIGFGPFIITNKHLFRRNNGTLVVQSLHGVFKVKDTTTLQQHLVDGRDMIIIRMPKDFPPFPQKLKFREPQREERICLVTTNFQTKSMSSMVSDTSCTFPSGDGIFWKHWIQTKDGQCGSWLVSTRDGFIVGIHSASNFTNTNNYFTSVPKNFMELLTNQEAQQWVSGWRLNADSVLWGGHKVFMVKPEEPFQPVKEATQL [P155W] | 0.0609 | 0.0433 | 0.0424 | 0.0547 | 0.0605 | 0.0544 | 0.0637 | 0.051 | 0.0621 | 0.0526 | 0.0573 | 0.0521 | 0.0567 | 0.0602 | 0.0511 | 0.0545 | 0.0493 | 0.0549 | –
2 | MGESLFKGPRDYNPISSSICHLTNESDGHTTSLYGIGFGPFIITNKHLFRRNNGTLVVQSLHGVFKVKDTTTLQQHLVDGRDMIIIRMPKDFPPFPQKLKFREPQREERICLVTTNFQTKSMSSMVSDTSCTFPSGDGIFWKHWIQTKDGQCGSSLVSTRDGFIVGIHSASNFTNTNNYFTSVPKNFMELLTNQEAQQWVSGWRLNADSVLWGGHKVFMVKPEEPFQPVKEATQL [P155S] | 0.0499 | 0.0673 | 0.0586 | 0.0389 | 0.0678 | – | 0.0526 | 0.0501 | 0.0542 | 0.0569 | 0.0672 | 0.0525 | 0.046 | 0.0633 | 0.0733 | 0.0585 | 0.0628 | 0.0481 | 0.0617
3 | MGESLFKGPRDYNPISSSICHLTNESDGHTTSLYGIGFGPFIITNKHLFRRNNGTLVVQSLHGVFKVKDTTTLQQHLVDGRDMIIIRMPKDFPPFPQKLKFREPQREERICLVTTNFQTKSMSSMVSDTSCTFPSGDGIFWKHWIQTKDGQCGSPLVSTRDGFIVGIWSASNFTNTNNYFTSVPKNFMELLTNQEAQQWVSGWRLNADSVLWGGHKVFMVKPEEPFQPVKEATQL [H168W] | 0.0612 | 0.0588 | 0.0582 | 0.0629 | 0.0765 | – | 0.063 | 0.0521 | 0.0778 | 0.0532 | 0.0562 | 0.0533 | 0.055 | 0.0531 | 0.0655 | 0.0585 | 0.054 | 0.065 | 0.0634
4 | MGESLFKGPRDYNPISSSICHLTNESDGHTTSLYGIGFGPFIITNKHLFRRNNGTLVVQSLHGVFKVKDTTTLQQHLVDGRDMIIIRMPKDFPPFPQKLKFREPQREERICLVTTNFQTKSMSSMVSDTSCTFPSGDGIFWKHWIQTKDGQCGSPLVSTRDGFIVVIHSASNFTNTNNYFTSVPKNFMELLTNQEAQQWVSGWRLNADSVLWGGHKVFMVKPEEPFQPVKEATQL [G166V] | 0.0545 | 0.0343 | 0.0531 | 0.0527 | – | – | 0.0324 | 0.0313 | 0.0585 | 0.0463 | 0.0458 | – | 0.0096 | – | 0.0481 | – | 0.0631 | – | 0.0346
5 | MGESLFKGPRDYNPISSSICHLTNESDGHTTSLYGIGFGPFIITNKHLFRRNNGTLVVQSLHGVFKVKDTTTLQQHLVDGRDMIIIRMPKDFPPFPQKLKFREPQREERICLVTTNFQTKSMSSMVSDTSCTFPSGDGIFWKHWIQTKDGQCGSPLVSTRDGFIVRIHSASNFTNTNNYFTSVPKNFMELLTNQEAQQWVSGWRLNADSVLWGGHKVFMVKPEEPFQPVKEATQL [G166R] | 0.0374 | – | 0.0627 | 0.0491 | 0.0623 | – | 0.0655 | 0.0468 | – | – | – | 0.059 | 0.0563 | 0.0537 | 0.0486 | 0.0404 | 0.0433 | – | 0.0534
6 | MGESLFKGPRDYNPISSSICHLTNESDGHTTSLYGIGFGPFIITNKHLFRRNNGTLVVQSLHGVFKVKDTTTLQQHLVDGRDMIIIRMPKDFPPFPQKLKFREPQREERICLVTTNFQTKSMSSMVSDTSCTFPSGDGIFWKHWIQTKDGQCGSPLVSTRFGFIVGIHSASNFTNTNNYFTSVPKNFMELLTNQEAQQWVSGWRLNADSVLWGGHKVFMVKPEEPFQPVKEATQL [D161F] | 0.0583 | 0.058 | – | 0.0577 | 0.065 | 0.0511 | – | 0.0515 | – | 0.0495 | 0.0568 | 0.0606 | 0.0419 | – | 0.0459 | 0.0692 | 0.046 | 0.0493 | 0.0555
7 | MGESLFKGPRDYNPISSSICHLTNESDGHTTSLYGIGFGPFIITNKHLFRRNNGTLVVQSLHGVFKVKDTTTLQQHLVDGRDMIIIRMPKDFPPFPQKLKFREPQREERICLVTTNFQTKSMSSMVSDTSCTFPSGDGIFWKHWIQTKDGQCGSPLVSTRCGFIVGIHSASNFTNTNNYFTSVPKNFMELLTNQEAQQWVSGWRLNADSVLWGGHKVFMVKPEEPFQPVKEATQL [D161C] | 0.0451 | 0.0699 | 0.0629 | 0.05 | 0.0657 | 0.058 | – | 0.0494 | 0.0561 | 0.0499 | 0.0586 | – | 0.0525 | 0.0604 | 0.0618 | 0.0583 | 0.0518 | 0.0625 | 0.0637
8 | MGESLFKGPRDYNPISSSICHLTNESDGHTTSLYGIGFGPFIITNKHLFRRNNGTLVVQSLHGVFKVKDTTTLQQHLVDGRDMIIIRMPKDFPPFPQKLKFREPQREERICLVTTNFQTKSMSSMVSDTSCTFPSGDGIFWKHWIQTKDGQCGSPLVSTRDGFCVGIHSASNFTNTNNYFTSVPKNFMELLTNQEAQQWVSGWRLNADSVLWGGHKVFMVKPEEPFQPVKEATQL [I164C] | 0.0654 | 0.0613 | – | 0.067 | 0.0601 | – | 0.0584 | 0.0586 | 0.0652 | 0.0583 | 0.0657 | 0.0591 | 0.0582 | – | 0.0617 | 0.0521 | 0.0564 | 0.0573 | –
